# Experimental data: the BET-seq Pho4 binding data (Le et al. 2018)
# Some of the results follow. Values were computed here from the reads of four pooled replicates and scatter widely.
# Molecular target: T1, Pho4 (S. cerevisiae) (UniProt P07270)
# T1 sequence: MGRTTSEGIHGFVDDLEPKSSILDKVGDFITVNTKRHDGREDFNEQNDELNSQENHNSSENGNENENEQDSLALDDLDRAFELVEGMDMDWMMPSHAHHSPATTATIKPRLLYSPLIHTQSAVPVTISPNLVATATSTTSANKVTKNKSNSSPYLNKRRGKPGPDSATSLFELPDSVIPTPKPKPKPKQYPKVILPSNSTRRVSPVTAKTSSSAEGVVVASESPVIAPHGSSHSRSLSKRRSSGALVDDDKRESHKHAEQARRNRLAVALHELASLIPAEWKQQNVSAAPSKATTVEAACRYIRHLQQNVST
# Test: relative binding free energy (BET-seq); higher = weaker binding
# Conditions: reference: library average
row,Sequence,relative binding free energy [kcal/mol]
1,TTTTTCACGTGCGATT,0.19
2,GTTTGCACGTGTACGG,0.05
3,GGTTGCACGTGCTCTT,0.03
4,TTCGTCACGTGAGTCG,0.26
5,GGGTCCACGTGGAAGG,0.19
6,TTGAGCACGTGTAGGA,-0.04
7,TACGTCACGTGTGGTC,0.06
8,GCTGTCACGTGGTCGG,0.03
9,GTTGACACGTGCTGGT,-0.02
10,TAACTCACGTGTTTTG,0.19
11,TGTGGCACGTGATAAA,-0.01
12,CTTAGCACGTGAATGT,0.15
13,GGTGACACGTGCGCGG,-0.2
14,GGGTGCACGTGAATGC,0.34
15,TAAGGCACGTGGAGCT,-0.13
16,ACGTGCACGTGGTAGT,-0.15
17,AAGGTCACGTGGGTTC,-0.03
18,CGGACCACGTGGTGGG,-0.1
19,ATGCTCACGTGAGAGG,0.32
20,GGATACACGTGGTGGG,0
21,GTGTGCACGTGGCTAA,-0.07
22,AAGATCACGTGGTATT,0.05
23,TATAACACGTGTAAGT,0.06
24,TGTCTCACGTGGAGGA,0.15
25,TATGTCACGTGCTGCG,-0.01
26,GGGAACACGTGAGGGG,0.28

row,Sequence,relative binding free energy [kcal/mol]
1,AATAACACGTGTGTGT,-0.08
2,ATTATCACGTGTGACT,0.23
3,TTGGGCACGTGCGGGG,-0.01
4,GTTATCACGTGGTCGG,-0.01
5,TTTCACACGTGCGTTG,0.04
6,CGGGGCACGTGTGTCG,-0.09
7,AGTTGCACGTGGGGAA,-0.11
8,ATGGGCACGTGTGAGC,-0.03
9,AATATCACGTGGTGAT,0.15
10,GGTGGCACGTGTGGCG,-0.16
11,TGGTTCACGTGGAGTC,0.31
12,ATTGTCACGTGTGTGA,0.04
13,GGTGACACGTGCCGGG,-0.13
14,TGATACACGTGTTCGT,-0.04
15,GGGGACACGTGAATTA,0.33
16,GAGATCACGTGGGATG,0.03
17,GGTTACACGTGTGGTT,0.25
18,GTGTACACGTGAGTAT,0.3
19,GTTGACACGTGGCGTG,0
20,GGGGACACGTGGGCGG,-0.08
21,GTGAACACGTGTGAAT,0.27
22,TCTGTCACGTGATGAG,0.15
23,CTGGGCACGTGGTTTG,-0.05
24,TAACGCACGTGGAGTG,-0.09
25,GGTAACACGTGTGTTG,0.12
26,CCTGTCACGTGGTTTG,0.05

row,Sequence,relative binding free energy [kcal/mol]
1,GTTGACACGTGTAATA,0.14
2,CCGTGCACGTGTGGCT,0.24
3,AGTGTCACGTGGGAAG,-0.06
4,GGTGACACGTGTCAGT,0.09
5,CATGTCACGTGTGGGG,-0.01
6,TGATGCACGTGGAGCT,0
7,GAATGCACGTGGTGGG,-0.03
8,TGATTCACGTGAGCAT,0.34
9,GGGTACACGTGTTTCA,0.17
10,ACAATCACGTGGGTTG,0
11,TAGTTCACGTGCAATT,0.35
12,AGTTGCACGTGCTCTT,0.01
13,ATGCGCACGTGTTGGA,-0.07
14,TAGGACACGTGTGGGC,0.25
15,GGTCCCACGTGAGGGT,0.13
16,AGGATCACGTGATGGC,0.24
17,CTGGGCACGTGGGACG,-0.28
18,TTAGGCACGTGTGCTT,-0.07
19,TTGGTCACGTGTTGCA,0.11
20,TTGTCCACGTGGTTAT,-0.05
21,TTTTACACGTGTCTCG,0.21
22,GGAGGCACGTGAATGC,0.27
23,TGTCGCACGTGGGCAA,-0.17
24,GTTACCACGTGTTAGT,0
25,TCAAACACGTGGGTTT,-0.02
26,AGGTCCACGTGGGCAT,-0.14

row,Sequence,relative binding free energy [kcal/mol]
1,TTGTACACGTGTATGA,-0.07
2,TGTAACACGTGGGCAG,-0.26
3,AAAATCACGTGTCGGT,0.13
4,CCTGTCACGTGTGGGC,0.16
5,TTGGTCACGTGGGTTT,0.11
6,TGAGTCACGTGGGCAA,0.08
7,AAGGACACGTGGGATA,0.04
8,TATGTCACGTGGGGCG,-0.01
9,TTGCTCACGTGATGAG,0.24
10,TATAGCACGTGGCGTG,-0.08
11,ATTCACACGTGGAGTT,0.1
12,CTATGCACGTGTGGTA,-0.01
13,TTATCCACGTGTCTGG,0.08
14,TTTTTCACGTGGTTGA,0.33
15,TGGTACACGTGGTTCT,0.17
16,GGCTGCACGTGATGTG,0.06
17,GTGGGCACGTGGTTGA,0.01
18,AGTATCACGTGCATTA,0.17
19,TAGGACACGTGGTACG,0.02
20,TGAGACACGTGTAATT,0.07
21,TATAGCACGTGTGAGA,-0.03
22,CTTGTCACGTGACTTG,0.15
23,ATGTTCACGTGATAGT,0.33
24,GTGGGCACGTGAGCTT,0.13
25,GGCGCCACGTGTGGGG,0.02
26,TTAGTCACGTGCCGTT,-0.06

row,Sequence,relative binding free energy [kcal/mol]
1,GTACTCACGTGCGGTG,0.19
2,TGTATCACGTGTAGTC,0.02
3,CGAGGCACGTGGGAAA,-0.03
4,TAGCTCACGTGTGTGC,0.29
5,TTTAGCACGTGAATTC,0.31
6,GTGGACACGTGTTTAA,0.13
7,TAGTGCACGTGAGGGG,0.15
8,GGATTCACGTGATTGG,0.4
9,ATTCGCACGTGAGGGG,0.18
10,CACATCACGTGGGGTT,0.03
11,GGGGACACGTGTGTTA,0.11
12,TACGTCACGTGTTTGC,0.07
13,GCGAGCACGTGGGGTG,-0.26
14,TAGGCCACGTGTTGAG,-0.16
15,TGCAGCACGTGGTGGG,-0.24
16,GGATACACGTGGAGGA,0.06
17,AGGAGCACGTGGTTAT,-0.07
18,TCAGGCACGTGGAGTA,-0.19
19,TGTCTCACGTGGAGGT,0.17
20,CATAGCACGTGAGTGG,0.06
21,GTATGCACGTGCAAGG,0
22,TGGTTCACGTGATGGC,0.28
23,TGTTGCACGTGTTACA,-0.18
24,CTGTTCACGTGTATAG,0.11
25,GGGCGCACGTGACGGG,0.07
26,GTACGCACGTGAAAGG,0.31

row,Sequence,relative binding free energy [kcal/mol]
1,TGATTCACGTGTTAGT,0.1
2,AGTGGCACGTGTGATA,0.02
3,TAGGGCACGTGAGACG,-0.06
4,AATTGCACGTGGTTTG,0
5,AGGGGCACGTGCTAAG,-0.22
6,ACTTTCACGTGCAGTT,0.36
7,CGGGGCACGTGCTTGA,-0.14
8,AGTTCCACGTGTTATG,0.18
9,ATTTACACGTGGATTT,-0.06
10,GTTATCACGTGTACTG,0.13
11,GTTGTCACGTGCGCTG,0.12
12,GTGTACACGTGGGCTG,0.05
13,AGTGACACGTGGTCTG,-0.19
14,ATTGTCACGTGGGCGT,-0.12
15,TGGGGCACGTGGTGGA,-0.14
16,GAAAGCACGTGAGTTG,0.2
17,ATCTTCACGTGGTTGG,0.27
18,GTGGACACGTGTCGGA,-0.05
19,TGGGCCACGTGTATTA,-0.07
20,TAGCTCACGTGTCGTT,0.24
21,CGGAGCACGTGAGGGA,0.06
22,TTAGTCACGTGAATGA,0.18
23,AGCAGCACGTGGTGAG,-0.07
24,GGTCTCACGTGTGAGA,0.24
25,TATCGCACGTGGCGGT,-0.17
26,AGCAGCACGTGGGCAG,-0.15

row,Sequence,relative binding free energy [kcal/mol]
1,ATTTGCACGTGTACTG,0.05
2,TTTGACACGTGAGAGT,0.28
3,TTGGGCACGTGAAGGC,0.22
4,TCACGCACGTGTTGTA,0.04
5,ATTGGCACGTGACTGG,0.02
6,GGTGTCACGTGCGATG,0.04
7,AGATGCACGTGAGATT,0.18
8,ATGTGCACGTGGGTCA,-0.29
9,CGCTTCACGTGGGGAG,0.17
10,ATCTTCACGTGATATG,0.3
11,GAGATCACGTGGGGAA,0.18
12,GTGAGCACGTGAGGGG,0.14
13,TGTGACACGTGTGAGA,0.06
14,AGGCGCACGTGGCGGG,-0.22
15,TTGGTCACGTGAGCTG,0.32
16,TTCTGCACGTGGTCTT,-0.01
17,CGTGACACGTGGGGTT,-0.14
18,ACGTGCACGTGCTGGG,-0.1
19,TGCGCCACGTGGGTAG,-0.22
20,TTAGGCACGTGTAAGA,0.03
21,ATATGCACGTGTTGGA,-0.01
22,TGTGCCACGTGGGCAG,-0.36
23,AAAGGCACGTGGAGTG,0.03
24,TTTTTCACGTGTAGGG,0.35
25,TTTCTCACGTGGGGTC,0.15
26,AGCGGCACGTGGAGTT,-0.12

row,Sequence,relative binding free energy [kcal/mol]
1,TTTTTCACGTGCGGAT,0.35
2,ATCGGCACGTGTTGAG,0.01
3,CAAGTCACGTGGTGTG,0.01
4,TTGTGCACGTGGGCCA,-0.24
5,TTGCACACGTGGGTCG,-0.15
6,CTGTTCACGTGTATGA,0.2
7,CAGAGCACGTGATGGG,0.08
8,TGTGGCACGTGTTGGA,0.02
9,TAATGCACGTGGCATG,-0.11
10,TTGTGCACGTGAGGAC,0.17
11,GAACTCACGTGGGGGC,0.21
12,GGAATCACGTGTTGTC,0.25
13,GTGGTCACGTGCTGGC,0.07
14,CTTGCCACGTGGTGAT,-0.08
15,TATGTCACGTGATGGC,0.23
16,TATTGCACGTGGCGTA,-0.05
17,AGGTCCACGTGGGTGG,-0.15
18,AAGGTCACGTGTGAAT,0.23
19,TGGGACACGTGATAGG,0.05
20,TTTGACACGTGGGTAT,-0.18
21,TTGTGCACGTGGCCTA,-0.06
22,ATGATCACGTGTAATG,0.13
23,CTACGCACGTGAGGGG,0.02
24,TTTTGCACGTGGTAGC,-0.01
25,CGAAGCACGTGGGGCA,-0.07
26,AGGCACACGTGACGGG,0.28

row,Sequence,relative binding free energy [kcal/mol]
1,TGTACCACGTGGGTGC,-0.19
2,AGAGTCACGTGCGCGG,0.04
3,AATCTCACGTGGTGTT,0.1
4,GGATTCACGTGGCGTA,0.29
5,CGGGGCACGTGTGTGG,-0.15
6,GTATGCACGTGCATGG,-0.12
7,GGTTACACGTGGCGTC,0.17
8,AATGTCACGTGTGTCA,0.07
9,TAGCACACGTGGTGGG,-0.04
10,TATTACACGTGAGTAT,0.28
11,TGAGGCACGTGGTAAA,0.02
12,GAGTTCACGTGTGCTA,0.39
13,GGCTTCACGTGTTTAA,0.37
14,GATTGCACGTGGTAGC,-0.04
15,ACTGTCACGTGTGTGT,0.11
16,CTGTACACGTGGTGGT,-0.05
17,TTTTGCACGTGGTTTG,0.01
18,TGGCTCACGTGGGATC,0.23
19,TGTGTCACGTGGGAAC,0.04
20,TGTAGCACGTGTCAAG,-0.02
21,CTTTCCACGTGTAGGG,0.16
22,AATAGCACGTGTGTTC,-0.02
